Test results as given in paper PMC3406007.
These are yes or no findings as the source states them, for the method shown.

T1: OSD1 (OMISSION OF SECOND DIVISION), yeast two-hybrid bait (Arabidopsis thaliana) (UniProt Q9M2R1)
T1 sequence: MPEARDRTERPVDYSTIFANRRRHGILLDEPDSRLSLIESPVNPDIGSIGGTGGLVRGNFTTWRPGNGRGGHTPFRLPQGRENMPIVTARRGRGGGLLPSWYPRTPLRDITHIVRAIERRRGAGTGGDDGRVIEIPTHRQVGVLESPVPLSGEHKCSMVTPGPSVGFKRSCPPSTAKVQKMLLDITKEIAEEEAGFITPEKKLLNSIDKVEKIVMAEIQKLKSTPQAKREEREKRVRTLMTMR

B1: APC2, yeast two-hybrid prey (protein, UniProt Q8H1U5 1-865)
chain: MEALGSSDCNLEILETLSDDAIQEITESYDGFFTTVESLIAGTGDSLVEDEFVSHVYCLCKYGLDSLVRDHFLRSLEQAFEKGGASSFWQHFDAYSEKKHHNYGEEIQIVLCKALEEISIEKQYHEKCLSIVVHALQSFKEQSSDDRQNSDTERVHLFSRFQSMLSSTLMTTLPQHFPEILHWYFKERLEELSAIMDGDGIEEQEDDCMDLDEKLRYKNGEMDVDEGCSQGKRLGHDKLVKNIGKVVRDLRSIGFTSMAENAYASAIFLLLKAKVHDLAGDDYRTSVLESIKEWIQTVPLQFLNALLSYLGDSVSYGTTSSGLTSPLACCPSPSFSRVVTPSEGIVRWKLRLEYFAYETLQDLRIAKLFEIIVDYPESSPAIEDLKQCLEYTGQHSKLVESFISSLKYRLLTAGASTNDILHQYVSTIKALRAIDPAGVFLEAVGEPIRDYLRGRKDTIKCIVTMLTDGSGGNANGSGNPGDSLLEELMRDEESQENVGFDDDFHTDDKQAWINASRWEPDPVEADPLKGSLSQRKVDILGMLVDIIGSKEQLVNEYRVMLAEKLLNKTDYDIDTEIRTVELLKIHFGEASMQRCEIMLNDLIDSKRVNTNIKKASQTGAELRENELSVDTLTSTILSTNFWPPIQDEPLELPGPVDKLLSDYANRYHEIKTPRKLLWKKNLGTVKLELQFEDRAMQFTVSPTHAAIIMQFQEKKSWTYKDLAEVIGIPIDALNRRVNFWISKGVLRESTGANSNSSVLTLVESITDSGKNEGEELLTGEEEGETSIASVEDQLRKEMTIYEKFIMGMLTNFGSMALERIHNTLKMFCVADPSYDKSLQQLQSFLSGLVSEEKLEFRDGMYLLKK
B2: APC11, yeast two-hybrid prey (protein, UniProt Q9M9L0 1-84)
chain: MKVKILQWHAVASWTWDAQDETCGICRMAFDGCCPDCKLPGDDCPLIWGACNHAFHLHCILKWVNSQTSQAHCPMCRREWQFKE
B3: CDC27a, yeast two-hybrid prey (protein, UniProt Q06AN9 1-717)
chain: MMENLLANCVQKNLNHFMFTNAIFLCELLLAQFPSEVNLQLLARCYLSNSQAYSAYYILKGSKTPQSRYLFAFSCFKLDLLGEAEAALLPCEDYAEEVPGGAAGHYLLGLIYRYSGRKNCSIQQFRMALSFDPLCWEAYGELCSLGAAEEASTVFGNVASQRLQKTCVEQRISFSEGATIDQITDSDKALKDTGLSQTEHIPGENQQDLKIMQQPGDIPPNTDRQLSTNGWDLNTPSPVLLQVMDALPPLLLKNMRRPAVEGSLMSVHGVRVRRRNFFSEELSAEAQEESGRRRSARIAARKKNPMSQSFGKDSHWLHLSPSESNYAPSLSSMIGKCRIQSSKEATTSGQSVSDIGSSVDDEEKSNPSESSPDRFSLISGISEVLSLLKILGDGHRHLHMYKCQEALLAYQKLSQKQYNTHWVLMQVGKAYFELQDYFNADSSFTLAHQKYPYALEGMDTYSTVLYHLKEEMRLGYLAQELISVDRLSPESWCAVGNCYSLRKDHDTALKMFQRAIQLNERFTYAHTLCGHEFAALEEFEDAERCYRKALGIDTRHYNAWYGLGMTYLRQEKFEFAQHQFQLALQINPRSSVIMCYYGIALHESKRNDEALMMMEKAVLTDAKNPLPKYYKAHILTSLGDYHKAQKVLEELKECAPQESSVHASLGKIYNQLKQYDKAVLHFGIALDLSPSPSDAVKIKAYMERLILPDELVTEENL
B4: HBT, yeast two-hybrid prey (protein, UniProt Q8LGU6 1-744)
chain: MEAMLVDCVNNSLRHFVYKNAIFMCERLCAEFPSEVNLQLLATSYLQNNQAYSAYHLLKGTQMAQSRYLFALSCFQMDLLNEAESALCPVNEPGAEIPNGAAGHYLLGLIYKYTDRRKNAAQQFKQSLTIDPLLWAAYEELCILGAAEEATAVFGETAALSIQKQYMQQLSTSLGLNTYNEERNSTSTKNTSSEDYSPRQSKHTQSHGLKDISGNFHSHGVNGGVSNMSFYNTPSPVAAQLSGIAPPPLFRNFQPAVANPNSLITDSSPKSTVNSTLQAPRRKFVDEGKLRKISGRLFSDSGPRRSSRLSADSGANINSSVATVSGNVNNASKYLGGSKLSSLALRSVTLRKGHSWANENMDEGVRGEPFDDSRPNTASTTGSMASNDQEDETMSIGGIAMSSQTITIGVSEILNLLRTLGEGCRLSYMYRCQEALDTYMKLPHKHYNTGWVLSQVGKAYFELIDYLEAEKAFRLARLASPYCLEGMDIYSTVLYHLKEDMKLSYLAQELISTDRLAPQSWCAMGNCYSLQKDHETALKNFLRAVQLNPRFAYAHTLCGHEYTTLEDFENGMKSYQNALRVDTRHYNAWYGLGMIYLRQEKLEFSEHHFRMAFLINPSSSVIMSYLGTSLHALKRSEEALEIMEQAIVADRKNPLPMYQKANILVCLERLDEALEVLEELKEYAPSESSVYALMGRIYKRRNMHDKAMLHFGLALDMKPPATDVAAIKAAMEKLHVPDEIDESP
B5: APC4, yeast two-hybrid prey (protein, UniProt O65418 1-777)
chain: MSEMASDEEENIIPFQLQFDKPIPFQIKIAEWNPEKDLLAMVTEDSKILLHRFNWQRLWTISPGKPVTSLCWRPDGKAIAVGLEDGTISLHDVENGKLLRNLKPHDVAVVCLNWEEDGQSNTDESGNFSVYEDRTSRFFPPAPRPPKMPGLVAGDSSFMDDGEDSLAELSNTSFRKFNILCTGDRDGNICFSIFGIFQIGKINIHELSLPVPHLDEHASCKLFNASIYKVALSKDLCRLVVMCTGELKDCDIKPREEKINVQDLPGLHCLAMDTSIFWKRKYELHQVAQQASNIEDLTEVIRASLSVMNKQWADAMKTFHEKFHSLSTLIIDNGLESSPQEEFLSLLGGARISPALNQFLVNSLGEVGVKRVLKSVCGTGKELQQVVLDHLQPAAEIIGFRIGELRGLSRWRARYQGIGLDEMLLNEATENTGLLLVQVQRFMMVLSSVVQQFSNFFNWLVRSIKYLMQEPNDQLLSYNSELLVVFLKFLYDQDPVKDLLELSEAGDDIEIDLKTIGRVKELLQFGGFSECDFLQRTLAKEFQHMESSFKMAFQMPFTTISRKISCMKLLPLCPLQLSTTQTPTTIPMSLSFYKNELSDDTPCQSGYTDYISFQVPDETFPEISNCIGIAKGYKQNSNNEKNGYTSLEAVLLSVPNGYTCVDLSLYKDKELVLLLNKTNTDSEGSGEACMMVVQTGDLAFISISGSSSLNQWELEDLKGSIVNLEMENEKVRKVPHSVIAPLAVSASRGVACVFAERRRALVYILEEDEDEEISDEK
B6: APC5, yeast two-hybrid prey (protein, UniProt Q8H1U4 1-916)
chain: MAGLTRTAGAFAVTPHKISVCILLQIYAPSAQMSLPFPFSSVAQHNRLGLYLLSLTKSCDDIFEPKLEKLINQLREVGEEMDAWLTDHLTNRFSSLASPDDLLNFFNDMRGILGSLDSGVVQDDQIILDPNSNLGMFVRRCILAFNLLSFEGVCHLFSSIEDYCKEAHSSFAQFGAPNNNLESLIQYDQMDMENYAMDKPTEEIEFQKTASGIVPFHLHTPDSLMKATEGLLHNRKETSRTSKKDTEATPVARASTSTLEESLVDESLFLRTNLQIQGFLMEQADAIEIHGSSSSFSSSSIESFLDQLQKLAPELHRVHFLRYLNKLHSDDYFAALDNLLRYFDYSAGTEGFDLVPPSTGCSMYGRYEIGLLCLGMMHFRFGHPNLALEVLTEAVRVSQQLSNDTCLAYTLAAMSNLLSEMGIASTSGVLGSSYSPVTSTASSLSVQQRVYILLKESLRRADSLKLRRLVASNHLAMAKFELMHVQRPLLSFGPKASMRHKTCPVSVCKEIRLGAHLISDFSSESSTMTIDGSLSSAWLKDLQKPWGPPVISPDSGSRKSSTFFQLCDHLVSIPGSVSQLIGASYLLRATSWELYGSAPMARMNTLVYATLFGDSSSSSDAELAYLKLIQHLALYKGYKDAFAALKVAEEKFLTVSKSKVLLLKLQLLHERALHCGNLKLAQRICNELGGLASTAMGVDMELKVEASLREARTLLAAKQYSQAANVAHSLFCTCHKFNLQIEKASVLLLLAEIHKKSGNAVLGLPYALASISFCQSFNLDLLKASATLTLAELWLGLGSNHTKRALDLLHGAFPMILGHGGLELRARAYIFEANCYLSDPSSSVSTDSDTVLDSLRQASDELQALEYHELAAEASYLMAMVYDKLGRLDEREEAASLFKKHIIALENPQDVEQNMA

Target: T1, OSD1 (OMISSION OF SECOND DIVISION), yeast two-hybrid bait (Arabidopsis thaliana)
Experiment: two-hybrid; OSD1 as bait (pDEST32) with different APC/C subunits as prey (pDEST22), by mating

**Q.** With B1 as the binder, how does the binding read?
**A.** no binding

**Q.** Which binding does the source give for B2 here?
**A.** no binding

**Q.** Which binding does the source give for B3 here?
**A.** no binding

**Q.** Which binding does the source give for B4 here?
**A.** no binding

**Q.** With B5 as the binder, how does the binding read?
**A.** no binding

**Q.** How did the binding turn out when B6 was run?
**A.** no binding
